Measured values taken from patent US20200071357A1, “ANTIMICROBIAL PEPTIDES” (UNIVERSITETET I TROMSØ - NORGES ARKTISKE UNIVERSITET, priority 2016, published 2020).
Part of at least one peptide drawing is inferred or uncertain, most often the ends. Some of these results come from one statement about several compounds together. Where no end group is shown, it is not given here.

How the values were obtained:
[1] = tested on: C. glutamicum, S. aureus, P. aeruginosa and Escherichia coli; experiment: Antibacterial assay, summary over the bacterial test strains; type: cell-based; details: for fold reduction of antibacterial activity (increase in MIC) compared to the lead peptide: against all bacterial strains tested
[2] = tested on: Staphylococcus aureus (Sa, ATCC 9144); type: cell-based; details: 24 h at 35° C., complete inhibition by OD 595 nm
Experimental: The peptides were screened for antibacterial activity against two strains of Gram-positive and two strains of Gram-negative bacteria; Corynebacterium glutamicum (Cg, ATCC 13032), Staphylococcus aureus (Sa, ATCC 9144), Pseudomonas aeruginosa (Pa, ATCC 27853) and Escherichia coli (Ec, ATCC 25922).
Cultures stored at −80° C. in glycerol were transferred to Müller-Hinton plates (MH, Difco, Lawrence, Kans., USA) and incubated for 24 h at 35° C. A few colonies of each bacterial strain were transferred to 5 ml liquid MH medium and left shaking at room temperature overnight at 600 rpm. Cultures of actively growing bacteria (20 μl) were inoculated in 5 ml MH medium and left shaking for 2 h at room temperature. The antibacterial assays were performed as previously described by Sperstad, S. V., et al. ((2009) Mol. Immunol. 46, 2604-2612) with the following exception: bacterial cultures were diluted with medium to 2.5-3×10^4 bacteria/ml concentrations. […]
The microtiter plates were incubated for 24 h at 35° C. with optical density recorded every hour using an Envision 2103 multilabel reader, controlled by a Wallac Envision manager (PerkinElmer, Conn., USA). Minimum inhibitory concentration (MIC) was defined as a sample showing complete inhibition (as measured by optical density at 595 nm) compared to the negative (growth) controls, consisting of bacteria and water. […]

Row | Substance | fold reduction of antibacterial activity (increase in MIC) compared to the lead peptide [1] | MIC (μM) Sa [2] [µM] | fold decrease in activity after truncation of HC ([1]; Gram-negative test bacteria (Escherichia coli and Pseudomonas aeruginosa)) [fold]
1 | AWWRRTVAKVRK-NH2 [Peptide G1A, AWWRRTVAKVRK-NH2] | 2-4 fold |  | 
2 | GWWARTVAKVRK-NH2 [Peptide R4A, GWWARTVAKVRK-NH2] | 2-8 fold | 50 | 
3 | GWWRATVAKVRK-NH2 [Peptide R5A, GWWRATVAKVRK-NH2] | 2-8 fold |  | 
4 | GWWRRTAAKVRK-NH2 [Peptide V7A, GWWRRTAAKVRK-NH2] | 4-8 fold |  | 
5 | GWWRRTVAAVRK-NH2 [Peptide K9A, GWWRRTVAAVRK-NH2] | 2-8 fold |  | 
6 | GWWRRTVAKARK-NH2 [Peptide V10A, GWWRRTVAKARK-NH2] | 4-8 fold |  | 
7 | GWWRRTVAKVAK-NH2 [Peptide R11A, GWWRRTVAKVAK-NH2] | 2-8 fold |  | 
8 | GWWRRTVAKVRA-NH2 [Peptide K12A, GWWRRTVAKVRA-NH2] | 2-8 fold | 50 | 
9 | GWWRRTVDKVRNAGRK [HC(1-16), GWWRRTVDKVRNAGRK] |  |  | 8
